# Reference: paper PMC6946706
# Results are given in words; binding and its absence hold for the method and conditions named. In cells and extracts the contact can be indirect. Some results given as binding are weak or reduced against the parent protein; the word gives no strength.
# How the values were obtained:
# [1] = biological target: FLAG-RepID FL (U2OS stable) (UniProt Q8WWQ0); test: co-IP; anti-FLAG IP from nuclear and chromatin-bound fractions of U2OS cells expressing RepID FL, F2–5 and Δ3 fragments; immunoblot
# [2] = biological target: BUB3 (endogenous) (human (endogenous in U2OS, HCT116, K562)) (UniProt O43684); test: co-IP; anti-BUB3 IP from lysate of asynchronized HCT116 RepID WT cells; immunoblot
# [3] = biological target: FLAG-DDB1 (human) (UniProt Q16531); test: co-IP; anti-FLAG IP from chromatin fractions of FLAG-DDB1-transfected HCT116 cells released from mitotic block at the indicated time points; immunoblot
# [4] = biological target: BUB3 (endogenous) (human (endogenous in U2OS, HCT116, K562)) (UniProt O43684); test: co-IP; anti-BUB3 IP from a mixture of soluble nuclear and chromatin-bound fractions of K562 RepID WT cells fractionated by elutriation; fractions outside G2/M; immunoblot
# [5] = biological target: BUB3 (endogenous) (human (endogenous in U2OS, HCT116, K562)) (UniProt O43684); test: co-IP; anti-BUB3 IP from a mixture of soluble nuclear and chromatin-bound fractions of K562 RepID WT cells fractionated by elutriation; G2/M fractions; immunoblot
Substance,binding [1],binding [2],binding [3],binding [4],binding [5]
BUB3 (endogenous) (from UniProt O43684 1-328),binds,–,–,–,–
RepID (endogenous) (from UniProt Q8WWQ0 1-1821),–,binds,binds,no binding (condition: elutriated fractions outside G2/M),binds
